{
  "source": "paper PMC4336329",
  "about": "(PLoS ONE, 2015)",
  "note": "The campaign covered roughly 310,000 compounds. About 14,000 (4.5%) showed an effect of 50% or more. Effects have a minus sign here. Some of the results follow.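 Note: peak tail current of the secondary pulse compared with the same well before compound.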",
  "data": [
    {"target": "human ether-à-go-go-related gene (hERG) potassium channel (human, UniProt Q12809)", "sequence (Q12809 whole entry, looked up)": "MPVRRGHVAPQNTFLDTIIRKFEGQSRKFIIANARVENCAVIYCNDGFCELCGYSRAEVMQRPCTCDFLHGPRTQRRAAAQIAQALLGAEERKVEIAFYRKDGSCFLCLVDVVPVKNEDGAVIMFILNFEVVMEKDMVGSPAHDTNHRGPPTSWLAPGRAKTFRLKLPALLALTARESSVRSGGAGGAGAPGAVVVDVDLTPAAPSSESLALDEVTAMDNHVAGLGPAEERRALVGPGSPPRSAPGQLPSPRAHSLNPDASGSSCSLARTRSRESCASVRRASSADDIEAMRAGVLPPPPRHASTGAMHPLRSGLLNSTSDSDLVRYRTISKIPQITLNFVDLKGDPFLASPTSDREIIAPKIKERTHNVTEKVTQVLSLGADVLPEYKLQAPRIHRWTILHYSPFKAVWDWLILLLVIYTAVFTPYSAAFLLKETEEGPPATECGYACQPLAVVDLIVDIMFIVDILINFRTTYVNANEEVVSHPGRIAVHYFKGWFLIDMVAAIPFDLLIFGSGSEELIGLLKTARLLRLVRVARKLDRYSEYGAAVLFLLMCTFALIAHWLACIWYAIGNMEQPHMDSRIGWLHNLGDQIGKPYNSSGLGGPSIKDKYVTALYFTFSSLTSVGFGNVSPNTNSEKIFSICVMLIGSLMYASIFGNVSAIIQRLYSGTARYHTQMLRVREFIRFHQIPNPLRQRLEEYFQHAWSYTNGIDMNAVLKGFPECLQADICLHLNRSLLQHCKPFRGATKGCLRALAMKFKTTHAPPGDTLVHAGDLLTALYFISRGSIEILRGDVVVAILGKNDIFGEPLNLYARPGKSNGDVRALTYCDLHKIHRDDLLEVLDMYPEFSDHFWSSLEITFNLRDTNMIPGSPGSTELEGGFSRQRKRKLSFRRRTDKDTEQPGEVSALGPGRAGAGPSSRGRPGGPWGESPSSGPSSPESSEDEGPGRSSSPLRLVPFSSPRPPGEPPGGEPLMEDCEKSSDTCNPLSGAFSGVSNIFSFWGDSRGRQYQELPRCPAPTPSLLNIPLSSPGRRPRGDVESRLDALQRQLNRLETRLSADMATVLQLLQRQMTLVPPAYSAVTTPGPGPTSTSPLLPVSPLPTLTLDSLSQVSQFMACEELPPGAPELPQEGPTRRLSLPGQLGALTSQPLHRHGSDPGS", "test": "primary screen, population patch clamp on CHO cells stably expressing hERG", "units": {"hERG current change (%, negative = inhibition) at 10uM": "%"}, "values": [
      {"smiles": "CC1=C(C(=O)OCc2ccccc2)C(c2cccc([N+](=O)[O-])c2)NC(=O)N1", "note": "(centres unmarked)", "hERG current change (%, negative = inhibition) at 10uM": 18.1},
      {"smiles": "O=C(Cn1nc(-c2ccccc2)c2ccccc2c1=O)Nc1ccc(F)cc1", "hERG current change (%, negative = inhibition) at 10uM": -2.75},
      {"smiles": "CNC(=O)CC1C(=O)N(Cc2ccccc2)C(=S)N1NC(=O)c1cccc(F)c1", "note": "(centres unmarked)", "hERG current change (%, negative = inhibition) at 10uM": 6.11},
      {"smiles": "Cc1ccc(NC(=O)CN2C(=O)c3ccccc3C2=O)nc1", "hERG current change (%, negative = inhibition) at 10uM": 6.21},
      {"smiles": "Cc1c(NC(=O)CN2C(=O)NC(C)(c3ccccc3)C2=O)c(=O)n(-c2ccccc2)n1C", "note": "(centres unmarked)", "hERG current change (%, negative = inhibition) at 10uM": 3.34},
      {"smiles": "CCOc1cc(C(=O)N/N=C/C(Br)=C/c2ccccc2)cc(OCC)c1OCC", "hERG current change (%, negative = inhibition) at 10uM": -11.8},
      {"smiles": "CC1(C)CC(=O)c2cc(OCC(=O)N3CCN(c4ccccc4F)CC3)ccc2O1", "hERG current change (%, negative = inhibition) at 10uM": -25.9},
      {"smiles": "Cc1cc(C)cc(N=Cc2[nH]c3ccc(Br)c(Cl)c3c2O)c1", "hERG current change (%, negative = inhibition) at 10uM": 9.23},
      {"smiles": "COc1cc(NC(=O)c2ccccc2)c(OC)cc1NC(=O)CN1CCCCC1.Cl", "hERG current change (%, negative = inhibition) at 10uM": -8.77},
      {"smiles": "CCCS(=O)(=O)N1CCc2cc(OC)c(OC)cc2C1", "hERG current change (%, negative = inhibition) at 10uM": 10.2},
      {"smiles": "Cc1noc(C)c1COC(=O)C1CCN(S(=O)(=O)c2c(Cl)cccc2Cl)CC1", "hERG current change (%, negative = inhibition) at 10uM": -23.4},
      {"smiles": "CN(CC(=O)NCc1ccccn1)S(=O)(=O)c1ccc(Cl)cc1", "hERG current change (%, negative = inhibition) at 10uM": -12},
      {"smiles": "CC(=O)n1cc(/C=N/NC(N)=S)c2ccccc21", "hERG current change (%, negative = inhibition) at 10uM": -18.4},
      {"smiles": "CCOc1ccccc1OCC(=O)NCc1ccco1", "hERG current change (%, negative = inhibition) at 10uM": -1.25},
      {"smiles": "Cc1ccc([N+](=O)[O-])cc1NC(=O)CSc1nncn1-c1ccccn1", "hERG current change (%, negative = inhibition) at 10uM": -22.8},
      {"smiles": "Cc1cccc(NC(=S)NCc2cccn2C)c1", "hERG current change (%, negative = inhibition) at 10uM": -1.46},
      {"smiles": "CCCc1nc2scc(-c3ccccc3)c2c(=O)n1N", "hERG current change (%, negative = inhibition) at 10uM": -1.24},
      {"smiles": "COc1ccc(/C=C/C(=O)NNc2cc(=O)n(C)c(=O)n2C)cc1OC", "hERG current change (%, negative = inhibition) at 10uM": 11.5},
      {"smiles": "Cc1cccc(C(=O)C2CCOC(C)(C)C2)c1", "note": "(centres unmarked)", "hERG current change (%, negative = inhibition) at 10uM": 13},
      {"smiles": "N#CC1(NC(=O)CN2CCN(S(=O)(=O)c3ccccc3F)CC2)CCCC1", "hERG current change (%, negative = inhibition) at 10uM": -11.6},
      {"smiles": "CCC(C)(NC(=O)c1ccc(=O)[nH]c1)C(=O)NC1CCCC1", "note": "(centres unmarked)", "hERG current change (%, negative = inhibition) at 10uM": 6.62},
      {"smiles": "c1ccc(Cn2ccc(-c3cnc(-c4ccccc4)s3)n2)cc1", "hERG current change (%, negative = inhibition) at 10uM": 13.2},
      {"smiles": "CCOc1ccc(-c2nnc3sc(COc4ccccc4)nn23)cc1", "hERG current change (%, negative = inhibition) at 10uM": 19},
      {"smiles": "Cc1ccsc1C(=O)C1CCCN(Cc2cn(C)nc2-c2ccccc2)C1", "note": "(centres unmarked)", "hERG current change (%, negative = inhibition) at 10uM": -32.1},
      {"smiles": "COc1ccccc1NC(=O)C(=O)NNC(=O)c1ccco1", "hERG current change (%, negative = inhibition) at 10uM": 9.88},
      {"smiles": "COc1cccc(NC(=O)Cn2c(=O)n(CCC(=O)NCc3ccco3)c(=O)c3ccccc32)c1", "hERG current change (%, negative = inhibition) at 10uM": -12.3},
      {"smiles": "CN(C(=O)CSc1nc2ccccc2o1)C1CCS(=O)(=O)C1", "note": "(centres unmarked)", "hERG current change (%, negative = inhibition) at 10uM": -10.5},
      {"smiles": "C/C=C/C(=O)Nc1ccc(N2CCN(c3ccc(C(F)(F)F)cn3)CC2)nc1", "hERG current change (%, negative = inhibition) at 10uM": 7.8},
      {"smiles": "COc1ccc(NC(=O)COc2ccc(C(=O)OCC(=O)N(C)C3CCS(=O)(=O)C3)cc2OC)cc1", "note": "(centres unmarked)", "hERG current change (%, negative = inhibition) at 10uM": 8.02},
      {"smiles": "COc1cc(O)cc2c1[C@@H]1Oc3c(ccc(O)c3CC=C(C)C)[C@@H]1CO2", "hERG current change (%, negative = inhibition) at 10uM": -0.905},
      {"smiles": "CCN(CC)S(=O)(=O)c1ccc(C(=O)N2CCN(C3=NS(=O)(=O)c4ccccc43)CC2)cc1", "hERG current change (%, negative = inhibition) at 10uM": -18.4},
      {"smiles": "O=C(OCc1nc2scc(-c3ccccc3)c2c(=O)[nH]1)c1cccc([N+](=O)[O-])c1", "hERG current change (%, negative = inhibition) at 10uM": 4.27},
      {"smiles": "O=c1c2ccccc2n2c(-c3cccc(Cl)c3)nnc2n1Cc1ccccc1", "hERG current change (%, negative = inhibition) at 10uM": -11.8},
      {"smiles": "CC(=O)c1cccc(NC(=O)CN(C)S(=O)(=O)c2ccc3c(c2)CC(C)N3C(C)=O)c1", "note": "(centres unmarked)", "hERG current change (%, negative = inhibition) at 10uM": 16.1},
      {"smiles": "COc1cc(/C=C2/SC(=S)N(CC(=O)O)C2=O)ccc1OC(=O)c1cccs1", "hERG current change (%, negative = inhibition) at 10uM": 12.6},
      {"smiles": "O=C(c1cccnc1)N(Cc1ccccc1)c1ccccc1", "hERG current change (%, negative = inhibition) at 10uM": -23.4},
      {"smiles": "CCOCCCNC(=S)N(CCCN(C)C)Cc1cc2cc3c(cc2[nH]c1=O)OCCO3", "hERG current change (%, negative = inhibition) at 10uM": 2.91},
      {"smiles": "O=C(Nc1cc(=O)[nH]c(=O)[nH]1)c1cc(Cl)ccc1Cl", "hERG current change (%, negative = inhibition) at 10uM": 19.3},
      {"smiles": "Clc1cccc(Cl)c1CO/N=C/c1cccs1", "hERG current change (%, negative = inhibition) at 10uM": 4.29},
      {"smiles": "N#CC1=C(c2ccccc2)/C(=C/c2ccccc2)OC1=O", "hERG current change (%, negative = inhibition) at 10uM": 14.7},
      {"smiles": "O=C(NCc1ccccc1)NC1(C(=O)N2CCOCC2)CCCCC1", "hERG current change (%, negative = inhibition) at 10uM": 1.43},
      {"smiles": "COc1ccc(S(=O)(=O)Nc2ccc3c(c2)OCCO3)cc1Cl", "hERG current change (%, negative = inhibition) at 10uM": -30.1},
      {"smiles": "Nc1ccc([N+](=O)[O-])cc1", "hERG current change (%, negative = inhibition) at 10uM": 21.5},
      {"smiles": "CNC(=S)NNC(=O)c1sc2cc(C(F)(F)F)cnc2c1-c1ccccn1", "hERG current change (%, negative = inhibition) at 10uM": 13.6}
    ]}
  ]
}
